Measured values taken from the supplement of paper PMC11417369.
The other results are listed elsewhere or left out.

The sequences below were run on PF3D7_0420300 AP2 domain 1 (GST-tagged) (assay: gcPBM binding intensity (ln(normalized median fluorescence intensity)); higher = stronger DNA binding).
How it was run: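 An Agilent 4 × 180k array carrying primer-extended double-stranded 36-bp intergenic genomic probes and negative controls received GST-tagged P. falciparum DNA-binding domains expressed in E. coli, about 25 μg on average, for 1 h. The binding buffer contained 1× PBS, 1% milk, 0.2 mg/ml BSA, 0.5% salmon testes DNA and 0.03% Triton X-100. Binding intensity is the top Masliner-normalised natural-log median intensity across replicate spots of either probe orientation, read after Alexa488 anti-GST antibody staining and a 488 nm scan.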

Sequence	gcPBM binding intensity (ln)
TTTCTTTATAAATTAATATTCACAACACAAAATATA [CACACA_negctrl_site450]	8.99
AAAAATTTGGCATACACACACACACCGACACAGACA [CACACA_site4489]	10.1
GTGCATATAAGGAAGTGTACGAAAAAAAATATTCCA [XGTACX_site8490]	9.2
AGTTATATGATTAATACACACAACAAATGTTTCTTC [CACACA_site1092]	9.49
AATTTGGTGTGTGTAAAAGTATGTGTCTATATTTAT [GTGCAC_negctrl_site166]	9.84
ATGTATGTTTATTACTATTTTGAGAATAGACTATAA [CACACA_negctrl_site1366]	8.97
AAGAATCATATTTAAACACACATACAGATATATATA [CACACA_site5787]	9.51
ACGACTAAATATATGAGTACATATATATATAAATAT [XGTACX_site7522]	9.25
TGCAAAAAATTCCACACACACACACCCATATAAATA [CACACA_site1230]	10
TCTAAAATAAATAATGCATGTTAAAAAAAAATATAT [TGCATGCA_site562]	9.33
TATTTCCTTTTTCTTGTTATTCATGAGAAAAAATGA [CACACA_negctrl_site482]	8.93
GAAATTTTTAATGTGGTGCACAGGAAATTTTTTCTT	9.05
AAAATAATAATAGGCACACATATATATATATATATA [CACACA_site2058]	9.34
AGTATACTCGGACACACACACACATATATATATATA [CACACA_site5031]	10.2
TACATACATACAGGAGTGCATATATCACAATTATTA	9.34
AAAAAAAAAAAAACTACACACATACAAATATTTATA [CACACA_site5430]	9.74
ATTTATTAAATAAAAAGTACAAAATAAGAAAGAAGA [XGTACX_site6935]	9.53
TTATATATATCTAATTGTACAATATTATGTTCATTA [XGTACX_site7479]	9.24
ATATATAATATAATATGTACATAAAATTTTAACATT [XGTACX_site5773]	9.36
AAAAAAACAGTGAATGCACACATTTAAGATCCATAT [CACACA_site3148]	9.51
TATATTCCCTTAATCACACATAAATAAAAAAAAATA [CACACA_site6094]	9.09
AGAACCATATATAAATGTACATGTTAATATGAATAA [XGTACX_site130]	9.36

Sequence	gcPBM binding intensity (ln)
GGACAAAAAAAAAAAATAAAATAAAAATAAATAAAT [XGTACX_negctrl_site106]	9.28
TAACACTTATAAAAAAGTACTGATGAAATAATACTA [XGTACX_site7305]	9.11
AAATATATATGAAGATGTACATATATATATGTAAAT [XGTACX_site4039]	9.26
AAAAATTCCAGACACACACACACATATAAATAAATA [CACACA_site1232]	9.93
TTTGTATAGTTGTAGGTGCATATCATTTTTAAATGT [GTGCAC_site9708]	9.38
TGTTAATAAAGGTGTACACAAAATAAAAAAAATTAT [CACACA_site4288]	9.46
TATAATTATATTTGGAGTACAAATTTTTTTTTTTTT [XGTACX_site7494]	8.87
AAAAAAAAAGGTAACGCATGCTTTTAGATTATATTA [TGCATGCA_site398]	9.07
AAGTATGCTTGCTACTTATTAAGTGGCAATATAATT [XGTACX_negctrl_site74]	8.93
AATTAAAATATATATATACACACGTAATTATATATA [CACACA_site3819]	9.35
ATTGTGGCAATATATTGTACATGTAATATAAATATA [XGTACX_site5415]	9.28
AAAAAAAAAAAAAAGAGTACTTTTTTCTCATTACTA [XGTACX_site8353]	9.01
TCTTTTAGTTTTATCCACATAATAAAAAGCAAAAAA [GTGCAC_negctrl_site368]	8.99
AAAAAAAAAAAAATAGGTACGTAAATATTTCTTTAA [XGTACX_site6423]	9.18
TATTCTTCAATTTAAAGTACAAAAATTACTATACTT [XGTACX_site6599]	9.06
TATTCTAATTTTTAAACACACAAATATAAATAAGTA [CACACA_site3149]	9.2
TATTCATATTTAAAGGTGCAATATTTATTTTGTACA	8.99
CTATTTATTATATATACATGCATATATATATTAATA [TGCATGCA_site527]	9.06
TAAAAATGTGTATGTACACACTTTATTTTTAATACA [CACACA_site7235]	9.23
TATTAAACGAAACACACACACACACCCATATATAAA [CACACA_site759]	10.2
AAAAAGAATGTGAACACACACATTGAATCTAATTTA [CACACA_site6711]	9.44
GATAATTATGGACACACACACACACCCACAACTAAA [CACACA_site8824]	10.3

Sequence	gcPBM binding intensity (ln)
TATATAAAAAATTCAATACACACCATATATAAATAT [CACACA_site3987]	9.66
ACATATAATATATATATATATATATATATATATAAT [GTGCAC_negctrl_site648]	9.09
TACATATAATATATTGCACACGTCAGAATAATATAG [CACACA_site1744]	9.39
TTTCTTTCTTCACATATATATATATATATATTTATA [TGCATGCA_negctrl_site341]	9.27
TAATAGAATATGATGGTGCAGCAGTCTTATTTTTCA	9.22
TTTTATAATATTTAAAGTACATTCTAAAAATATAAT [XGTACX_site8033]	8.83
TTAGCCATTAATTCTCTACACACCTTTATGTTATTT [CACACA_site9212]	9.78
AAATAAAATAAAATAAAATAAAATTCTTTGATACCT [TGCATGCA_negctrl_site604]	9.16
TATAATTATTTTTTTCTAAATATTATAAGGTATTCA [GTGCAC_negctrl_site205]	8.89
CTTTTTAATAAATATACACACACAAAAAAAAAAAAA [CACACA_site9316]	9.73
CACTTTATACGTAATTGTACTTTTTCTTTTTTTTAT [XGTACX_site3175]	9.62
ACTTACTAATTAATGGGTACATACACACATATATAC [XGTACX_site1362]	9.67
TATTCAAAGAAAGACAGTACGTGTAGCAAACAACCT [XGTACX_site4218]	9.47
TAAATAAAGTATAATGCATGCTATTATAATATTAAT [TGCATGCA_site825]	9.24
AATAAAAAAATAGAAACACACATTAAAAAAAATAAA [CACACA_site1333]	9.72
ATGATATATAGACACACACACATATTTATATACATT [CACACA_site6404]	10
TATTTTTCCATATGCACACACACCGTATATATAATA [CACACA_site1127]	10
ATAACAAAATAAAACACACACACAAATGTACATATA [CACACA_site2425]	10.3
AAATAAATAATTTAATGTACATATATAATATATATA [XGTACX_site1831]	9.14
CATATACACCAACACACACACACACCCACAAAAAAA [CACACA_site496]	10.2
TTAAAGAATATTTTCACACATAAAAATTTTAATTTA [CACACA_site4290]	8.81
TTATAAAACACAAAATGTACAAAAAATTATAATTAA [XGTACX_site6859]	9.29

Sequence	gcPBM binding intensity (ln)
AATATTATTATCTTACCACACACAATCTACGAAAAG [CACACA_site8006]	9.49
TATATATATATAAGTGCACACTGAACCAAGAAAATT [CACACA_site5637]	9.58
TATGTCTTGTTGTAAAATATTTATTAACAAATTGGC [CACACA_negctrl_site1452]	8.89
TTAATAAAAATATATCCACACACATATATATATATG [CACACA_site8091]	9.66
ATCATTTATTTTTTAAAAGTATATATATATATATAT [CACACA_negctrl_site220]	9.14
TTTTTTTTTTTTTAAATAATCATACATGTGAAATTG [GTGCAC_negctrl_site328]	8.69
AAATATAAGTTTTATTGTACATTATATAGCATATTT [XGTACX_site6618]	9.16
ACATATTATAACATATGTACATATATATATATATAA [XGTACX_site5567]	9.21
TTTTGACATTAACTTAAAAAATAAATAATTATAAAA [XGTACX_negctrl_site552]	8.66
TATCATATAAAACATGCACACATATGTACTCTTATA [CACACA_site9249]	9.52
AAAAAATAAGATTGTACACACATAAATTCTTTGTCA [CACACA_site2089]	9.39
CGTTCTATTTAGATATGTACTTAAATATATGATCAT [XGTACX_site2936]	9.2
AAAGTAAAAAAAAAAACATGCATACGCTAATTTTTA [TGCATGCA_site301]	8.97
GATATGTTAAATATATGTACATATATAAACCCAAAC [XGTACX_site6601]	9.68
AAAAAGTGATTAAAATGTACAAAATGCATAAAAGAA [XGTACX_site6625]	9.6
ATTTTAATACTTTTATATTAAATGTAGCACATCATA [XGTACX_negctrl_site273]	8.94
CATTTTTTGCTTTCAACACACATACAATATAAATAA [CACACA_site7858]	9.31
TTATTTATTTAGTAGTGTACTTTTTATATTTATAAT [XGTACX_site5978]	9.37
AAAAAAAAAAAATACACACACATATATATATATATA [CACACA_site2224]	9.65
TATGTAATAAATAGTACACACACACCGATATATATA [CACACA_site8389]	10.1
TATAATAATATTATAGTGCATATTATTTATATATAA [GTGCAC_site9820]	8.98
ATTTTTATTTTCTTTACACACCACATAACTTTTTTT [CACACA_site7826]	9.75
